Source: the supplement of paper PMC8728848
The other results are listed elsewhere or left out.

Tests used:
Assay in all cases: glycan array binding signal (z-score within array); higher = stronger binding
Conditions in all cases: glycan notation: IUPAC condensed, linker removed
Glc(b1-4)Glc = biological target: Glc(b1-4)Glc
Outline: (§1)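 The Consortium for Functional Glycomics database supplied 3228 glycan arrays, of which those lacking an available protein sequence were dropped. The binding signal, a within-array Z-score, was averaged across arrays of the same protein sequence and across linkers. Negative scores can be read as non-binding.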

Glc(b1-6)Glc = biological target: Glc(b1-6)Glc
Outline: as §1

GlcA(b1-3)Gal = biological target: GlcA(b1-3)Gal
Outline: as §1

GlcA(b1-3)GlcNAc = biological target: GlcA(b1-3)GlcNAc
Outline: as §1

GlcA(b1-6)Gal = biological target: GlcA(b1-6)Gal
Outline: as §1

[1] = biological target: GlcA3S(b1-3)Gal(b1-4)GlcNAc(b1-2)Man
Outline: as §1

[2] = biological target: GlcA3S(b1-3)Gal(b1-4)GlcNAc(b1-3)Gal(b1-4)Glc
Outline: as §1

[3] = biological target: GlcNAc(a1-3)Gal(b1-4)GlcNAc
Outline: as §1

[4] = biological target: GlcNAc(a1-4)Gal(b1-3)GlcNAc
Outline: as §1

[5] = biological target: GlcNAc(a1-4)Gal(b1-4)GalNAc
Outline: as §1

[6] = biological target: GlcNAc(a1-4)Gal(b1-4)GlcNAc
Outline: as §1

[7] = biological target: GlcNAc(a1-4)Gal(b1-4)GlcNAc(b1-3)Gal(b1-4)Glc
Outline: as §1

[8] = biological target: GlcNAc(a1-4)Gal(b1-4)GlcNAc(b1-3)Gal(b1-4)GlcNAc
Outline: as §1

[9] = biological target: GlcNAc(a1-4)Gal(b1-4)GlcNAc(b1-3)Gal(b1-4)GlcNAc(b1-3)Gal(b1-4)GlcNAc
Outline: as §1

[10] = biological target: GlcNAc(a1-4)Gal(b1-4)GlcNAc(b1-3)Gal(b1-4)[Fuc(a1-3)]GlcNAc(b1-3)Gal(b1-4)[Fuc(a1-3)]GlcNAc
Outline: as §1

[11] = biological target: GlcNAc(a1-6)Gal(b1-4)GlcNAc
Outline: as §1

[12] = biological target: GlcNAc(b1-2)Gal(b1-3)GalNAc
Outline: as §1

[13] = biological target: GlcNAc(b1-2)Man(a1-3)[GlcNAc(b1-2)Man(a1-6)]Man(b1-4)GlcNAc(b1-4)GlcNAc
Outline: as §1

[14] = biological target: GlcNAc(b1-2)Man(a1-3)[GlcNAc(b1-2)Man(a1-6)]Man(b1-4)GlcNAc(b1-4)[Fuc(a1-6)]GlcNAc
Outline: as §1

[15] = biological target: GlcNAc(b1-2)Man(a1-3)[GlcNAc(b1-4)][GlcNAc(b1-2)Man(a1-6)]Man(b1-4)GlcNAc(b1-4)GlcNAc
Outline: as §1

[16] = biological target: GlcNAc(b1-2)Man(a1-3)[GlcNAc(b1-4)][GlcNAc(b1-2)Man(a1-6)]Man(b1-4)GlcNAc(b1-4)[Fuc(a1-6)]GlcNAc
Outline: as §1

[17] = biological target: GlcNAc(b1-2)[GlcNAc(b1-4)]Man(a1-3)[GlcNAc(b1-2)Man(a1-6)]Man(b1-4)GlcNAc(b1-4)GlcNAc
Outline: as §1

[18] = biological target: GlcNAc(b1-2)[GlcNAc(b1-4)]Man(a1-3)[GlcNAc(b1-4)][GlcNAc(b1-2)Man(a1-6)]Man(b1-4)GlcNAc(b1-4)GlcNAc
Outline: as §1

[19] = biological target: GlcNAc(b1-2)[GlcNAc(b1-4)]Man(a1-3)[GlcNAc(b1-4)][GlcNAc(b1-2)[GlcNAc(b1-6)]Man(a1-6)]Man(b1-4)GlcNAc(b1-4)GlcNAc
Outline: as §1

[20] = biological target: GlcNAc(b1-2)[GlcNAc(b1-4)]Man(a1-3)[GlcNAc(b1-4)][GlcNAc(b1-2)[GlcNAc(b1-6)]Man(a1-6)]Man(b1-4)GlcNAc(b1-4)[Fuc(a1-6)]GlcNAc
Outline: as §1

[21] = biological target: GlcNAc(b1-2)[GlcNAc(b1-6)]Man(a1-6)[GlcNAc(b1-2)Man(a1-3)]Man(b1-4)GlcNAc(b1-4)GlcNAc
Outline: as §1

[22] = biological target: GlcNAc(b1-2)[GlcNAc(b1-6)]Man(a1-6)[GlcNAc(b1-2)Man(a1-3)]Man(b1-4)GlcNAc(b1-4)[Fuc(a1-6)]GlcNAc
Outline: as §1

[23] = biological target: GlcNAc(b1-2)[GlcNAc(b1-6)]Man(a1-6)[GlcNAc(b1-4)][GlcNAc(b1-2)Man(a1-3)]Man(b1-4)GlcNAc(b1-4)GlcNAc
Outline: as §1

GlcNAc(b1-3)Fuc = biological target: GlcNAc(b1-3)Fuc
Outline: as §1

GlcNAc(b1-3)Gal = biological target: GlcNAc(b1-3)Gal
Outline: as §1

[24] = biological target: GlcNAc(b1-3)Gal(b1-3)GalNAc
Outline: as §1

GlcNAc(b1-3)Gal(b1-4)Glc = biological target: GlcNAc(b1-3)Gal(b1-4)Glc
Outline: as §1

[25] = biological target: GlcNAc(b1-3)Gal(b1-4)GlcNAc
Outline: as §1

[26] = biological target: GlcNAc(b1-3)Gal(b1-4)GlcNAc(b1-2)Man(a1-3)[GlcNAc(b1-3)Gal(b1-4)GlcNAc(b1-2)Man(a1-6)]Man(b1-4)GlcNAc(b1-4)GlcNAc
Outline: as §1

[27] = biological target: GlcNAc(b1-3)Gal(b1-4)GlcNAc(b1-2)Man(a1-3)[GlcNAc(b1-3)Gal(b1-4)GlcNAc(b1-2)Man(a1-6)]Man(b1-4)GlcNAc(b1-4)[Fuc(a1-6)]GlcNAc
Outline: as §1

[28] = biological target: GlcNAc(b1-3)Gal(b1-4)GlcNAc(b1-2)[GlcNAc(b1-3)Gal(b1-4)GlcNAc(b1-6)]Man(a1-6)[GlcNAc(b1-3)Gal(b1-4)GlcNAc(b1-2)Man(a1-3)]Man(b1-4)GlcNAc(b1-4)GlcNAc
Outline: as §1

[29] = biological target: GlcNAc(b1-3)Gal(b1-4)GlcNAc(b1-3)Gal(b1-4)GlcNAc
Outline: as §1

[30] = biological target: GlcNAc(b1-3)Gal(b1-4)GlcNAc(b1-3)Gal(b1-4)GlcNAc(b1-2)Man(a1-3)[GlcNAc(b1-3)Gal(b1-4)GlcNAc(b1-3)Gal(b1-4)GlcNAc(b1-2)Man(a1-6)]Man(b1-4)GlcNAc(b1-4)GlcNAc
Outline: as §1

[31] = biological target: GlcNAc(b1-3)Gal(b1-4)GlcNAc(b1-3)Gal(b1-4)GlcNAc(b1-2)Man(a1-3)[GlcNAc(b1-3)Gal(b1-4)GlcNAc(b1-3)Gal(b1-4)GlcNAc(b1-2)Man(a1-6)]Man(b1-4)GlcNAc(b1-4)[Fuc(a1-6)]GlcNAc
Outline: as §1

[32] = biological target: GlcNAc(b1-3)Gal(b1-4)GlcNAc(b1-3)Gal(b1-4)GlcNAc(b1-2)[GlcNAc(b1-3)Gal(b1-4)GlcNAc(b1-3)Gal(b1-4)GlcNAc(b1-6)]Man(a1-6)[GlcNAc(b1-3)Gal(b1-4)GlcNAc(b1-3)Gal(b1-4)GlcNAc(b1-2)Man(a1-3)]Man(b1-4)GlcNAc(b1-4)[Fuc(a1-6)]GlcNAc
Outline: as §1

[33] = biological target: GlcNAc(b1-3)Gal(b1-4)GlcNAc(b1-3)Gal(b1-4)GlcNAc(b1-3)Gal(b1-4)GlcNAc(b1-2)Man(a1-3)[GlcNAc(b1-3)Gal(b1-4)GlcNAc(b1-3)Gal(b1-4)GlcNAc(b1-3)Gal(b1-4)GlcNAc(b1-2)Man(a1-6)]Man(b1-4)GlcNAc(b1-4)GlcNAc
Outline: as §1

[34] = biological target: GlcNAc(b1-3)Gal(b1-4)GlcNAc(b1-3)Gal(b1-4)GlcNAc(b1-3)Gal(b1-4)GlcNAc(b1-2)Man(a1-3)[GlcNAc(b1-3)Gal(b1-4)GlcNAc(b1-3)Gal(b1-4)GlcNAc(b1-3)Gal(b1-4)GlcNAc(b1-2)Man(a1-6)]Man(b1-4)GlcNAc(b1-4)[Fuc(a1-6)]GlcNAc
Outline: as §1

[35] = biological target: GlcNAc(b1-3)Gal(b1-4)GlcNAc(b1-3)Gal(b1-4)GlcNAc(b1-3)Gal(b1-4)GlcNAc(b1-2)[GlcNAc(b1-3)Gal(b1-4)GlcNAc(b1-3)Gal(b1-4)GlcNAc(b1-3)Gal(b1-4)GlcNAc(b1-6)]Man(a1-6)[GlcNAc(b1-3)Gal(b1-4)GlcNAc(b1-3)Gal(b1-4)GlcNAc(b1-3)Gal(b1-4)GlcNAc(b1-2)Man(a1-3)]Man(b1-4)GlcNAc(b1-4)[Fuc(a1-6)]GlcNAc
Outline: as §1

[36] = biological target: GlcNAc(b1-3)Gal(b1-4)GlcNAc(b1-3)Gal(b1-4)GlcNAc(b1-3)Gal(b1-4)GlcNAc(b1-3)Gal(b1-4)GlcNAc(b1-2)Man(a1-3)[GlcNAc(b1-3)Gal(b1-4)GlcNAc(b1-3)Gal(b1-4)GlcNAc(b1-3)Gal(b1-4)GlcNAc(b1-3)Gal(b1-4)GlcNAc(b1-2)Man(a1-6)]Man(b1-4)GlcNAc(b1-4)GlcNAc
Outline: as §1

[37] = biological target: GlcNAc(b1-3)Gal(b1-4)GlcNAc(b1-3)Gal(b1-4)GlcNAc(b1-3)Gal(b1-4)GlcNAc(b1-3)Gal(b1-4)GlcNAc(b1-2)Man(a1-3)[GlcNAc(b1-3)Gal(b1-4)GlcNAc(b1-3)Gal(b1-4)GlcNAc(b1-3)Gal(b1-4)GlcNAc(b1-3)Gal(b1-4)GlcNAc(b1-2)Man(a1-6)]Man(b1-4)GlcNAc(b1-4)[Fuc(a1-6)]GlcNAc
Outline: as §1

B1: NKR-PIC (Mus musculus) (protein)
chain: GTGQKPSREKCCVFIQENLNKTTDCSVNLECPQDWLLHRDKCFHVSQVSNTWEEGQADCGRKGATLLLIQDQEELRFLLDSIKEKYNSFWIGLRFTLPDMNWKWINGTTFNSDVLKITGVTENGSCASILGDKVTPESCASDNRWICQKELNHETPSNDSGT
For B1, the “glycan array binding signal (z-score)” value (Glc(b1-4)Glc) was -0.281, the “glycan array binding signal (z-score)” value (Glc(b1-6)Glc) was -0.369 and the “glycan array binding signal (z-score)” value (GlcA(b1-3)Gal) was -0.283. For the same binder, the “glycan array binding signal (z-score)” value (GlcA(b1-3)GlcNAc) was -0.374, the “glycan array binding signal (z-score)” value (GlcA(b1-6)Gal) was -0.335 and the “glycan array binding signal (z-score)” value [1] was -0.356. For the same binder, the “glycan array binding signal (z-score)” value [2] was -0.224, the “glycan array binding signal (z-score)” value [3] was 3.83 and the “glycan array binding signal (z-score)” value [4] was 1.3. For the same binder, the “glycan array binding signal (z-score)” value [5] was 1.02, the “glycan array binding signal (z-score)” value [6] was 2.75 and the “glycan array binding signal (z-score)” value [7] was 2.08. For the same binder, the “glycan array binding signal (z-score)” value [8] was 2.07, the “glycan array binding signal (z-score)” value [9] was 4.1 and the “glycan array binding signal (z-score)” value [10] was 1.22. For the same binder, the “glycan array binding signal (z-score)” value [11] was -0.328, the “glycan array binding signal (z-score)” value [12] was -0.07 and the “glycan array binding signal (z-score)” value [13] was -0.317. The “glycan array binding signal (z-score)” value [14] was -0.287, the “glycan array binding signal (z-score)” value [15] was 3.99 and the “glycan array binding signal (z-score)” value [16] was 3.73. For the same binder, the “glycan array binding signal (z-score)” value [17] was -0.353, the “glycan array binding signal (z-score)” value [18] was 1.63 and the “glycan array binding signal (z-score)” value [19] was 0.235. For the same binder, the “glycan array binding signal (z-score)” value [20] was -0.231, the “glycan array binding signal (z-score)” value [21] was -0.319 and the “glycan array binding signal (z-score)” value [22] was -0.368. For the same binder, the “glycan array binding signal (z-score)” value [23] was 1.57, the “glycan array binding signal (z-score)” value (GlcNAc(b1-3)Fuc) was 0.686 and the “glycan array binding signal (z-score)” value (GlcNAc(b1-3)Gal) was -0.247. The “glycan array binding signal (z-score)” value [24] was -0.329, the “glycan array binding signal (z-score)” value (GlcNAc(b1-3)Gal(b1-4)Glc) was -0.282 and the “glycan array binding signal (z-score)” value [25] was 1.7. For the same binder, the “glycan array binding signal (z-score)” value [26] was 0.533, the “glycan array binding signal (z-score)” value [27] was 0.804 and the “glycan array binding signal (z-score)” value [28] was 1.88. For the same binder, the “glycan array binding signal (z-score)” value [29] was 1.75, the “glycan array binding signal (z-score)” value [30] was 1.31 and the “glycan array binding signal (z-score)” value [31] was 1.59. The “glycan array binding signal (z-score)” value [32] was 1.86, the “glycan array binding signal (z-score)” value [33] was 1.55 and the “glycan array binding signal (z-score)” value [34] was 1.53. The “glycan array binding signal (z-score)” value [35] was 1.96, the “glycan array binding signal (z-score)” value [36] was 2.76 and the “glycan array binding signal (z-score)” value [37] was 1.31.
